Test results reported in article PMC4336329 (PLoS ONE, 2015).
Screen size: about 310,000 compounds; about 2,200 (0.71%) showed an effect of 50% or more. Effects have a minus sign here. This is one part of the list.

target: human ether-à-go-go-related gene (hERG) potassium channel (human, UniProt Q12809); test: primary screen, population patch clamp on CHO cells stably expressing hERG
Sequence (Q12809 whole entry, looked up): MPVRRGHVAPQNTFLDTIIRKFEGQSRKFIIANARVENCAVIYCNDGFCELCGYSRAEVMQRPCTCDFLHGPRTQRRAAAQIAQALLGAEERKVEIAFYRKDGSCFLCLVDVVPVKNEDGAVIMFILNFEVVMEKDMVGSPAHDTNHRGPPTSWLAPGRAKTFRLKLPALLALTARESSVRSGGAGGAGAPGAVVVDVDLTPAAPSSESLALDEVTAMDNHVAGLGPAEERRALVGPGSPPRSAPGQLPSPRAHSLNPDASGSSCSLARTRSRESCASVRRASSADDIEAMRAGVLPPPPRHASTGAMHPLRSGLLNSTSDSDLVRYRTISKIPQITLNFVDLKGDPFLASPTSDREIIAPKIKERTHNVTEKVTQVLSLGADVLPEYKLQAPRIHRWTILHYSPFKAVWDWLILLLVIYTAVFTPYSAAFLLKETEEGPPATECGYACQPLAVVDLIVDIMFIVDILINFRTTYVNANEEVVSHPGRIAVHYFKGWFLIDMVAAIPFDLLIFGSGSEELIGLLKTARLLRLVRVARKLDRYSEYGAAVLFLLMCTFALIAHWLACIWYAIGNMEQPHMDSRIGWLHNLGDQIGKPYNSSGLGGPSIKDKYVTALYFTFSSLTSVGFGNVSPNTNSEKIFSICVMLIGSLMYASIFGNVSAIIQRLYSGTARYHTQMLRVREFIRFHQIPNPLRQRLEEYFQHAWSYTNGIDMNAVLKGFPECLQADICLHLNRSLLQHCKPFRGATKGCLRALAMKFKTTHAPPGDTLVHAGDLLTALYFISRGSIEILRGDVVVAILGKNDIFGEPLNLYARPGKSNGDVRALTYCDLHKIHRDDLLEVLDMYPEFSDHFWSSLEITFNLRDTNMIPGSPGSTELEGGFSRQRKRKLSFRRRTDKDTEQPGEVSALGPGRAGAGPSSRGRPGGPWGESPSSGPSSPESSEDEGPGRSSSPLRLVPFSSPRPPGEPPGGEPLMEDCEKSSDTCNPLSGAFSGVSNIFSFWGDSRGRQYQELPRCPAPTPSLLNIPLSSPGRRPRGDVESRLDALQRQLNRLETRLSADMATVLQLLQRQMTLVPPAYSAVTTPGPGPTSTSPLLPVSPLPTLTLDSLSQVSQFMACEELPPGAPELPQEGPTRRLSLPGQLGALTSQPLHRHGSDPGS

| Structure (SMILES) | hERG current change (%, negative = inhibition) at 1uM [%] |
| --- | --- |
| COC(=O)c1ccc(COC(=O)CNC(=O)c2ccc(C)s2)cc1 | 11.4 |
| O=C(Nc1ccc([N+](=O)[O-])cn1)c1ccc(Br)o1 | 13.3 |
| O=C(Nc1ncccn1)C1c2ccccc2Oc2ccccc21 | -4.98 |
| COc1ccc(OCC(=O)NNC(=O)Cc2coc3cc(OC)ccc23)cc1 | 10.9 |
| CCOC(=O)c1c(/N=C/c2ccc(C)cc2O)sc2c1CCN(C)C2 | 2.32 |
| C(=NC12CN3CN(CN(C3)C1)C2)c1ccc2c(c1)OCO2 | -1.22 |
| CCC(=O)N1CCc2cc(S(=O)(=O)CCC(=O)Nc3cccc(F)c3)ccc21 | 11 |
| CN(c1ccccc1)S(=O)(=O)c1ccc(NC(=S)Nc2ccccc2)cc1 | -6.83 |
| CCOC(=O)c1c(C)[nH]c(O)c1C=Nc1ccc(C(F)(F)F)cc1 | 14.2 |
| O=C(COc1cccnc1[N+](=O)[O-])NCc1ccccc1 | 8.88 |
| CCCCN(c1ccccc1)S(=O)(=O)c1ccc2c(c1)CCN2C(=O)CCC(=O)O | 14.7 |
| COc1ccc(/C=C(\CC(=O)O)c2nc3ccccc3o2)cc1 | 13.6 |
| COc1ccc(OC)c2c1sc(=NC(=O)c1ccco1)n2C | 13.1 |
| CC(NC(=O)c1ccccc1)c1nc2ccccc2n1Cc1ccc(C#N)cc1 (stereo not shown) | -35.6 |
| C=CCNC(=O)CCCC(=O)NCC=C | 12.4 |
| COc1ccc2nc(SCC(=O)NC(C)c3ccccc3)[nH]c2c1 (stereo not shown) | 7.92 |
| NC(=O)c1c(/N=C/c2cccnc2)sc2c1CCCC2 | 6.74 |
| COc1ccc(C2NC(=O)NC(C)=C2[N+](=O)[O-])cc1 (stereo not shown) | 6.23 |
| COc1ccc(-c2cc(-c3ccccc3)c(C#N)c(=S)[nH]2)cc1 | 9.89 |
| COc1ccc(/C=C2/SC(=O)N(CCC(=O)Nc3ccccc3)C2=O)cc1OC | 5.2 |
| CC1(C)CC(=O)C(C=NCCCN2CCOCC2)=C(O)C1 | 11 |
| O=C1NC(=O)/C(=C\c2ccc(OCc3ccccc3)cc2)S1 | 5.62 |

| Structure (SMILES) | hERG current change (%, negative = inhibition) at 1uM [%] |
| --- | --- |
| Cl.O.O=c1c2ccccc2nc2n1CC/C2=C/N1CCN(c2cccc(C(F)(F)F)c2)CC1 | 5.54 |
| COc1ccc(C(=O)N(C)Cc2nc3ccccc3c(=O)[nH]2)cc1S(=O)(=O)N1CCCC1 | 14.7 |
| COc1cccc(NC(=O)CCNC(=O)N2CC(=O)Nc3ccccc32)c1 | 13.8 |
| CNc1nc2ccccc2n1N | 10.8 |
| Clc1cccc(-c2cc3nc4c(c(N5CCN(c6cnccn6)CC5)n3n2)CCCC4)c1 | 3.59 |
| COC(=O)c1ccccc1-c1ccc(C=O)o1 | 20.5 |
| CCn1c(SCC(N)=O)nc2cc(S(=O)(=O)N3CCOCC3)ccc21 | -3.71 |
| CCc1nnc(NC(=O)c2ccc(Cl)nc2)s1 | 12.5 |
| [O-][Cl+3]([O-])([O-])[O-].c1ccc(-c2cc(-c3ccccc3)[n+](-c3ccccc3)c(-c3ccccc3)c2)cc1 | -27.7 |
| O=C(O)c1ccc(CSCc2ccccc2Cl)o1 | 11.8 |
| O=C(CN1CCN(S(=O)(=O)c2ccccc2)CC1)N1CCCCC1 | 8.64 |
| CC(C)CN(C(=O)CN1CCN(S(=O)(=O)c2ccc3ccccc3c2)CC1)c1c(N)n(CC(C)C)c(=O)[nH]c1=O | 10 |
| COc1ccc(-c2cc(N)n(CCC#N)n2)c(OC)c1 | 9.09 |
| CSc1cccc(NC(=S)N(Cc2ccc(C)cc2)Cc2ccccn2)c1 | 4.46 |
| O=C(Nc1cccnc1)c1ccc(S(=O)(=O)c2ccc(Cl)cc2)cc1 | -1.05 |
| O=C(c1ccc(Cl)cc1)C1CCCN(Cc2ccon2)C1 (stereo not shown) | -7.89 |
| O=C(Cc1c(F)cccc1Cl)Nc1ccc(-n2cnnn2)cc1 | 11.7 |
| COc1ccc(CN2CCN(Cc3ccc(C(F)(F)F)cc3)CC2)c(OC)c1.O=C(O)C(=O)O | -66.6 |
| CCC(=O)Nc1ccc(C(=O)NNC(=O)c2cc([N+](=O)[O-])cc([N+](=O)[O-])c2)cc1 | 15.3 |
| COc1ccc(OC)c(C2=NOC(C(=O)Nc3cccnc3)C2)c1 (stereo not shown) | -3.02 |
| O=C(NC(=S)NCCOCc1ccc(Cl)cc1)c1cccnc1 | 7.31 |
| COc1cccc2c(Cl)c(CCCl)c(C)nc12 | 7.62 |

| Structure (SMILES) | hERG current change (%, negative = inhibition) at 1uM [%] |
| --- | --- |
| CC(NC(=O)Cn1cccc1)c1ccccc1 (stereo not shown) | 20.4 |
| O=c1c2cccc3c2c(nn1-c1ccccc1)-c1ccccc1-3 | 16.2 |
| C/C(=N/NC(N)=S)c1ccc(Br)s1 | 14.7 |
| O=C(CSc1ccc2nnc(-c3ccc(F)cc3)n2n1)NCc1ccco1 | 6.46 |
| Cc1ccc(OCC(=O)NCCCNC(=O)c2ccncc2)cc1C | 3.18 |
| Nc1cccc(C(=O)NCCNC(=O)c2cccc(N)c2)c1 | -0.917 |
| CC1(C)CC(=O)c2c(S(C)(=O)=O)sc(Br)c2C1 | 4.83 |
| CC(=O)NCCC(=O)N1CCCC(N2CCN(c3cccc(Cl)c3)CC2)C1 (stereo not shown) | 20.1 |
| COC(=O)C1=CO[C@H](C)[C@H]2CN3CC[C@@]4(C(=O)Nc5ccccc54)[C@@H]3C[C@H]12 | 4.41 |
| CCc1c(C(=O)N/N=C/c2ccc(C)o2)csc1C | 4.97 |
| COc1ccc(N2CCN(C(=O)CCNS(=O)(=O)c3ccc4c(c3)CCC(=O)N4)CC2)cc1 | -0.211 |
| FC(F)Oc1ccc(-c2c[n+]3c(n2-c2ccccc2)CCCCC3)cc1 | -33.1 |
| CC1=Nn2c(nc(-c3ccccc3)c2-c2ccccc2)N(CC(N)=O)C(=O)C1 | 10.4 |
| O=S(=O)(CCOc1ccccc1)N1CCOCC1 | 13.8 |
| O=C(c1ccc([N+](=O)[O-])cc1[N+](=O)[O-])N1CCCC1 | 13.2 |
| CC(=O)C1=C(O)C(=O)N(CCCCCC(=O)O)C1c1ccc(N(C)C)cc1 (stereo not shown) | 5.97 |
| N#CCSc1nc2cc(C(=O)N3CCC(C(N)=O)CC3)ccc2c2nc3ccccc3n12 | 9.77 |
| Cc1cccc(NC(=O)Nc2ccc(S(N)(=O)=O)cc2)c1 | 15.7 |
| CC(=O)c1ccccc1NC(=O)COC(=O)c1ccc2c(c1)nc(C)n2-c1ccccc1 | 20.6 |
| CCc1ccc(-c2csc3ncn(CC(=O)NCc4ccco4)c(=O)c23)cc1 | 4.89 |
| CC(CCc1ccccc1)NS(=O)(=O)c1ccccc1 (stereo not shown) | 5.27 |
| Cc1ccc(S(=O)(=O)NC2(C(F)(F)F)NC(=O)N(Cc3ccccc3)C2=O)cc1 (stereo not shown) | 8.16 |

| Structure (SMILES) | hERG current change (%, negative = inhibition) at 1uM [%] |
| --- | --- |
| O=C(Nc1nc(-c2ccccn2)cs1)C1CC1 | 14.3 |
| COc1ccc(-c2csc3ncnc(N4CCN(S(=O)(=O)c5cccs5)CC4)c23)cc1 | 2.67 |
| Cc1cc(OCc2cc(C(=O)N3CCC(Oc4cccnc4)CC3)no2)cc(C)c1Cl | 2.98 |
| CN(Cc1ccco1)C(=O)Cn1ncc2c([nH]c3ccccc32)c1=O | 9.75 |
| CN(c1ccccc1)S(=O)(=O)c1ccc(C(=O)Nc2nnc(-c3ccc(F)cc3)o2)cc1 | 14.4 |
| CSc1nc2nc3c(cc2c(=O)n1-c1ccc(C)cc1)COC(C)(C)C3 | 11.2 |
| COc1ccc(OC)c(N/C(=N/c2nc(C)cc(C)n2)NC(C)=O)c1 | 9.71 |
| COc1ccc(-c2cc(=O)oc3c(C)c(O)ccc23)cc1 | 21.5 |
| CCC(=O)NC(c1cccs1)c1cc(Cl)c2cccnc2c1O (stereo not shown) | 12.4 |
| COc1ccc2[nH]c(=O)c(-c3nnn(-c4ccc(F)cc4)n3)cc2c1 | 2.23 |
| CCN(CC)c1ccc(/C=C/C(=O)c2ccc(Br)cc2)cc1 | 10.1 |
| Cc1ccc(/C=C/C(=O)c2c(C)nc3ccccn23)cc1 | -3.46 |
| CC(NC(=O)C12CC3CC(C1)CC(n1cncn1)(C3)C2)C12CC3CC(CC(C3)C1)C2 (stereo not shown) | -19.9 |
| COc1ccc(CNC(=S)Nc2ccc(F)c(Cl)c2)cc1 | 3.8 |
| COc1cccc2c1Oc1ncccc1N(C(=O)CCC(=O)NCc1ccccc1)C2 | 5.29 |
| Cc1cc(C)c(NC(=S)NC(=O)c2c(Cl)c(C)nn2C)c([N+](=O)[O-])c1 | 10.4 |
| COC(=O)CSc1nnc(CNC(=O)c2ccccc2OC)n1-c1ccc(OC)cc1 | 2.24 |
| CCOc1ccc(NC(=O)c2ccccc2C(=O)c2ccccc2)cc1OCC | 16.3 |
| Cc1nn(CC(=O)Nc2ccc(C(C)C)cc2)c(C)c1[N+](=O)[O-] | 12 |
| O=C(C(Cc1ccc(Cl)cc1)NS(=O)(=O)c1ccccc1)N1CC[C@@]2(O)CCCC[C@H]2C1 (stereo partly shown) | -18.5 |
| CC(OCC(O)CN(C)Cc1nc2ccccc2c(=O)[nH]1)c1ccc(Cl)cc1 (stereo not shown) | -2.63 |
| COc1ccc(-c2nn(-c3ccccc3)cc2C2CC(c3cccs3)=NN2C(=O)CCC(=O)O)cc1 (stereo not shown) | 14.2 |
